# Experimental data reported in the supplement of paper PMC7826260.
# The other results are listed elsewhere or left out. The data describe in vitro nicking of single-stranded DNA by Rep domains (1 h at 37 °C, 3 µM enzyme); the outer parts of the 90-letter strands are left off. A value is the log2 ratio of uncut reads to the pool without enzyme; strong cutting gives strongly negative numbers. There is no active / inactive call. Reads are scaled to the total, so uncut sequences can rise above 0 when many others are cut.
# System: T1, Rep nickase domain of tomato golden mosaic virus
# T1 sequence (Rep 1-124, printed without the tag): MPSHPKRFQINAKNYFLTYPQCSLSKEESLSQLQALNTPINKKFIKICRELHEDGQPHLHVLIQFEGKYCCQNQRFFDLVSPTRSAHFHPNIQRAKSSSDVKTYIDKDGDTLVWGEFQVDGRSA
# Assay: uncleaved DNA left, log2 of reads against the no-enzyme library (log2 ratio); higher = less cleavage (more negative = more Rep cleavage of the k-mer); sequences stand for … in CTCGTCCG…ACCGGAGA
# Procedure: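 A pool of 90-nt single-stranded DNAs with seven random bases just before the constant AC of the nick site (name = the seven bases) was cut by 3 µM recombinant His6-SUMO-tagged Rep nickase domain (300 nM DNA, 50 mM HEPES pH 8.0, 50 mM NaCl, 1 mM MnCl2, 1 h, 37 °C, three replicates). Uncut DNA was amplified and sequenced.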
row,Sequence,uncleaved DNA left (log2)
1,GTGCATG,-0.07
2,TTCTCTA,-0.033
3,AGATACG,-0.0682
4,AGAGGGC,0.19
5,ATTGCGG,-0.0436
6,TATTATG,0.137
7,CTTTCAG,0.0745
8,TAGAAAG,0.106
9,CCCTCAC,0.189
10,CTGCATG,-0.172
11,CGATGCG,-0.157
12,TCAAGAT,0.229
13,TGGTCGA,-0.0131
14,AGTAAGT,-0.0206
15,AGTCCTA,0.0514
16,CGGGAGA,0.0733
17,TACTCCG,-0.132
18,CTAATCA,0.0663
19,GCATATG,0.0784
20,GTCCACG,0.0339

row,Sequence,uncleaved DNA left (log2)
1,ATAGTCC,0.0298
2,GTCTCGC,0.203
3,CTGTGAA,-0.00152
4,GCAGAGG,0.0522
5,GCTTGAG,0.0437
6,TGCGAGT,-0.0643
7,TTTACCG,-0.0794
8,CTTTAAT,-0.0258
9,CAGAGAT,0.0585
10,ATGAAGG,0.094
11,GTGGTGC,-0.0197
12,CTTTGCT,-0.155
13,CTAAGGG,0.093
14,GTGCTCG,0.00976
15,CGTGGGT,-0.164
16,AGAAGAC,0.116
17,TTTGCCT,-0.083
18,ACAGCAT,-0.184
19,GCGCGCC,-0.281
20,GGTGGTA,0.0164
